In this assay the target is T1, human TMEM129 (E3 ligase), endogenous in HeLa cells (human, UniProt A0AVI4 1-362).
T1 construct: whole, on cells; Endogenous protein in HeLa lysates; also called E3 ligase TMEM129
T1 sequence (looked up): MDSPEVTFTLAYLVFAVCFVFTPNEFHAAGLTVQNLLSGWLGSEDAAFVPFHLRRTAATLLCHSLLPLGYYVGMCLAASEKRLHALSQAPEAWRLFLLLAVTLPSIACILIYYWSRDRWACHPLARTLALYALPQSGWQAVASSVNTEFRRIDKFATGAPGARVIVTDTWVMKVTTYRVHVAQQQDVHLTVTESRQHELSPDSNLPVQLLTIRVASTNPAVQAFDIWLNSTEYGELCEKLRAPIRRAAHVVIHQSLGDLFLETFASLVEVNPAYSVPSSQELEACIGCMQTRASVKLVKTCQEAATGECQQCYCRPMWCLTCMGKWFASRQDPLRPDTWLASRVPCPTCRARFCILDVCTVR
As to the kind of experiment: co-immunoprecipitation with anti-FLAG, HeLa^US11+FcRnCT-/- cells transfected with Derlin-1 (FIG. 5E).

B1: FLAG-tagged tailless human FcRn (FcRn CT-/-) (receptor)
chain: not shown
notes: domain: tailless FcRn (CT-/-); also called FcRn-tailless; FcRn tailless
Take B1: the binding result is reported as “no binding”.
